Reference: PubChem BioAssay AID1721 (National Center for Advancing Translational Sciences (NCATS), 2009)
About 1,100 (0.38%) of roughly 290,000 compounds were called active. This list was built around the results that the source calls inconclusive (neither active nor inactive); the mix of calls is not that of the screen. Calls follow the shape of the dose curve; as a rule, active = well fitted inhibition curve with a large enough effect; inconclusive = small, poorly fitted or top-dose-only effect, or another doubt; inactive = no such curve, though single readings can be large or run the other way. Potencies of inconclusive entries are doubtful fits and often do not repeat.

Target: Pyruvate kinase (Leishmania mexicana) (UniProt Q27686)
Experiment: qHTS Assay for Inhibitors of Leishmania Mexicana Pyruvate Kinase (LmPK)
Conditions: purified LmPK, Kinase-Glo ATP luminescence, 1 h; activity change, negative = inhibition: at 57.5 µM (top of the series) unless noted
Summary of the method: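 ATP generated from ADP (0.1 mM) and PEP (0.5 mM) by 0.1 nM LmPK over 1 h at room temperature (pH 7.2 imidazole buffer) was detected by coupled luciferase luminescence. Values were normalized to uninhibited and no-enzyme wells.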
% is scaled to controls: 0 for no effect and ±100 for the full control effect; potency is read from the fitted curve at half-maximal effect; tags tell the direction and shape of the fitted curve.

UniProt Q27686, sequence (Q27686 whole entry, looked up): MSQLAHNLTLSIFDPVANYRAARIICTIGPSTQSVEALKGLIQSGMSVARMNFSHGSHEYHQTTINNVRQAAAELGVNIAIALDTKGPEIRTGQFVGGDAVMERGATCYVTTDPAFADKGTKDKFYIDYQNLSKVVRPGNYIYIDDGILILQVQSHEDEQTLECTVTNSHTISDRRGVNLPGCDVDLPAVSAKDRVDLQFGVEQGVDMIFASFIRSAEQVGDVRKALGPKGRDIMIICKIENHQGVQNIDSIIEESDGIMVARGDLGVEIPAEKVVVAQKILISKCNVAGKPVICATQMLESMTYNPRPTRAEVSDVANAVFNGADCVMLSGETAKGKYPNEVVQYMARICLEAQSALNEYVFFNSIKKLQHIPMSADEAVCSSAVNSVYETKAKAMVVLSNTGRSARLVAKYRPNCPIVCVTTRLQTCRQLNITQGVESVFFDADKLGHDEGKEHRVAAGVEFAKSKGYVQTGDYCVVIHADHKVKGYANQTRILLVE

Row | SMILES | Potency | activity change, negative = inhibition
1 | COc1ccc(C(=O)Nn2c(SCC(=O)NCc3ccco3)nc3ccccc3c2=O)cc1 | inconclusive: 22.4 µM [falling, partial curve] | 
2 | COc1ccc(/C=N/Nc2cc(OC)ncn2)cc1 | inconclusive: 14.1 µM [falling, partial curve] | 
3 | COc1ccccc1N1CCN(CCCNC(=O)Nc2ccccc2)CC1 |  | inactive: 7.68%
4 | Cc1ccc(-n2c(-c3ccc(Cl)cc3)n[nH]c2=S)cc1 | active: 14.1 µM | 
5 | Cc1ccccc1NC(=O)c1cc2ccccn2n1 | active: 12.6 µM | 
6 | CN(C)/C=C1\NC(=S)N(c2ccccc2)C1=O | inconclusive: 11.2 µM [falling, partial curve] | 
7 | CCSc1nnc(NC(=O)c2cccc(S(=O)(=O)N(C)c3ccc(C)cc3)c2)s1 |  | inactive: 2.34%
8 | Cc1ccnc2nc(C(=O)Nc3ccc4c(c3)OCO4)nn12 | active: 15.8 µM | 
9 | O=[N+]([O-])c1ccc2c(c1N1CCCCC1)=NC1(CCCCC1)[N+]=2[O-] | inconclusive: 39.8 µM [falling, single point] | 
10 | COc1cc2cc(CN(Cc3nnnn3C3CCCC3)C3CCCC3)c(=O)[nH]c2cc1OC |  | inactive: 6.33%
11 | [O-]/[N+](=C\c1ccc(F)cc1)c1ccccc1 | inconclusive: 25.1 µM [falling, single point] | 
12 | CCCc1ccc(C(=O)/C=C/N(C)C)cc1 | inconclusive: 22.4 µM [falling, single point] | 
13 | Cc1cccc(-n2c(Cc3ccccc3)n[nH]c2=S)c1 | active: 7.08 µM | 
14 | Cn1c(SCc2ccc(C#N)cc2)nnc1-c1ccncc1 |  | inactive: -1.6%
15 | COc1ccc(C(=O)O/N=C(\C)c2nccs2)cc1 | active: 7.94 µM | 
16 | COC(=O)C1C(=O)C=C(Nc2ccc(F)cc2)CC1c1ccc(OC)cc1 (stereo not given) |  | inactive: 2.27%
17 | O=C(O)c1ccc(COc2c(F)c(F)cc(F)c2F)cc1 | inconclusive: 25.1 µM [falling, single point] | 
18 | O=C(C#Cc1ccccc1)Nc1ccccc1F | inconclusive: 31.6 µM [falling, single point] | 
19 | O=C(CCc1nnc(-c2ccccc2)o1)NC1CCCCC1 |  | inactive: 4.97%
20 | C/C(=N\NC(=O)c1n[nH]c2c1CCC2)c1cccs1 | active: 11.2 µM | 
21 | COc1ccc2nc(NC(=O)/C=C/c3ccc4c(c3)OCO4)sc2c1 |  | inactive: -1.08%
22 | Cc1ccc(-n2c(-c3ccc(Cl)cc3)n[nH]c2=S)c(C)c1 | active: 20 µM | 
23 | CC(/C=C/C=C/c1ccccc1)=N/NC(=O)C(O)c1ccccc1 (stereo not given) |  | inactive: 1.72%
24 | COc1ccc2nc3ccccc3nc2c1N | inconclusive: 28.2 µM [falling, single point] | 
25 | C(=N\Nc1nncc2ccccc12)/c1ccccn1 | inconclusive: 35.5 µM [falling, single point] | 
26 | Cc1nc(-c2ccc([N+](=O)[O-])cc2)sc1C(=O)O | active: 15.8 µM | 
27 | CCCC(=O)Nc1ccc(NC(=O)c2ccccn2)cn1 | inconclusive: 14.1 µM [falling, partial curve] | 
28 | O=C(CSc1nc2ccccc2o1)Nc1ccc(Cl)cc1 |  | inactive: 2.48%

Row | SMILES | Potency | activity change, negative = inhibition
29 | c1ccc(-c2cn3c4c(sc3n2)CCCC4)cc1 | active: 14.1 µM | 
30 | Cc1ccccc1NC(=O)c1cccc2nc3ccccc3nc12 |  | inactive: 0.294%
31 | O=C(OC1CCOC1=O)c1ccc(-c2nc3ccccc3s2)s1 (stereo not given) | inconclusive: 12.6 µM [falling, partial curve] | 
32 | CCOC(=O)CSc1ccc(-c2nc3ccccc3[nH]2)cn1 | inconclusive: 25.1 µM [falling, single point] | 
33 | C/C(=N\NC(=O)C(=O)Nc1ccc(C)cc1)c1ccncc1 |  | inactive: -2.2%
34 | Cc1ccc(C(=O)/C=C2\NCCNC2=O)cc1 | inconclusive: 31.6 µM [falling, single point] | 
35 | O=C(N/N=C/c1ccccc1)c1[nH]ncc1Br | active: 12.6 µM | 
36 | Cc1csc(NC(=O)c2cc3c(s2)CCC3)n1 | inconclusive: 25.1 µM [falling, partial curve] | 
37 | Cc1ccsc1/C=C1\CCc2ccccc2C1=O | inconclusive: 35.5 µM [falling, single point] | 
38 | Cc1ccccc1NC(=S)NNC(=O)c1ccoc1C | inconclusive: 11.2 µM [falling, partial curve] | 
39 | O=C(NCCN1CCOCC1)c1ccccc1-c1ccccc1 |  | inactive: -0.146%
40 | Cc1ccccc1-n1c(SCC(=O)c2c(N)n(C)c(=O)n(C)c2=O)nnc1-c1cccnc1 |  | inactive: -1.56%
41 | O=Cc1ccc(OCc2ccccn2)cc1 | inconclusive: 31.6 µM [falling, single point] | 
42 | O=C(CNc1ccc(F)cc1)c1ccccc1 | inconclusive: 14.1 µM [falling, partial curve] | 
43 | c1ccc(OCc2nc3ccccc3s2)cc1 | inconclusive: 17.8 µM [falling, partial curve] | 
44 | O=C(Nc1ccccc1F)c1ccc(CSc2ncccn2)cc1 | active: 15.8 µM | 
45 | O=C(NNc1cc(C(F)(F)F)nc2ccccc12)Nc1cccc(Cl)c1 | inconclusive: 25.1 µM [falling, single point] | 
46 | Cn1c(-c2sc3cc(C(F)(F)F)cnc3c2-c2cccnc2)n[nH]c1=S | inconclusive: 15.8 µM [falling, partial curve] | 
47 | Cc1ccccc1-n1c(-c2ccncc2)n[nH]c1=S | active: 31.6 µM | 
48 | CN=c1scc(-c2ccccc2F)n1/N=C/c1ccc(O)c(O)c1O | inconclusive: 31.6 µM [falling, single point] | 
49 | Cc1ccc(C(=O)/C=C/Nc2ccccc2C(N)=O)cc1 | inconclusive: 5.01 µM [falling, full curve] | 
50 | O=C(O)c1ccc(-n2cc(-c3cc4ccccc4oc3=O)[nH]c2=S)cc1 | inconclusive: 39.8 µM [falling, single point] | 
51 | Cc1cccc(-c2nc(C#N)c(N3CCCCC3)o2)c1 |  | inactive: -1.77%
52 | S=C(NCc1ccccn1)Nc1ccccc1Cl |  | inactive: -7.6%
53 | CN1C2CCC1CC(NC(=O)CSCc1ccc(Cl)cc1Cl)C2 (stereo not given) |  | inactive: 3.66%
54 | Nc1cc2sc(-c3ccc(C(=O)O)cc3)nc2cc1Cl | active: 15.8 µM | 
55 | Cc1ccnc(N/N=C/c2ccccc2)n1 | inconclusive: 14.1 µM [falling, partial curve] | 
